# Laboratory results reported in PubChem BioAssay AID624171 (National Center for Advancing Translational Sciences (NCATS), 2012).
# In all, about 410,000 compounds went through this assay and about 1,200 (0.29%) were called active. The shares of active, inactive and inconclusive entries below differ from those in the screen. Calls come from the whole dose curve; as a rule, active = well fitted activation curve with a large enough effect; inconclusive = small, poorly fitted or top-dose-only effect; inactive = flat fitted curve, though single readings scatter. Potencies of inconclusive entries are doubtful fits and often do not repeat.
# Test: qHTS of Nrf2 Activators; note: nearly all actives have a fitted effect of over 65% in size; for activation: % of control where 0% means no effect
# Conditions: AREc32 ARE-luciferase reporter (MCF7-derived line), luminescence, 24 h; activation: at 46.1 µM (top of the series)
# In short: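 Each well held 1000 AREc32 cells, which were incubated with compound for 24 hr at 37 deg C after overnight attachment, and ARE reporter activity was quantified by firefly luciferase luminescence.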
# Potency is the fitted concentration of half-maximal effect; tags give direction and shape of the fitted curve.
SMILES,activation,Potency
COc1ccc(/C(C)=N/Nc2nccnc2Cl)cc1,inactive: 13.7%,
CCOC(=O)CNC(c1ccccc1)c1cc(Br)ccc1NC(=O)CCN1CCOCC1 (stereo unspecified),,"inconclusive: 12.6 µM [activator, single point]"
O=C(/C=C/c1ccccc1Cl)Nn1cnc2ccccc2c1=O,,"inconclusive: 7.08 µM [activator, partial curve, poor fit]"
O=C(CSc1ncccc1-c1nc2ccccc2[nH]1)NCc1ccco1,,"inconclusive: 12.6 µM [activator, single point]"
CCCc1c(C(=O)N/N=C/c2cccs2)nnn1-c1nonc1N,,active: 8.91 µM
COc1ccc(N=Nc2ccc(O)c3ncccc23)cc1,,"inconclusive: 2.82 µM [activator, full curve, poor fit]"
O=C(NC1CCCC1)C(c1ccncc1)N(Cc1ccco1)C(=O)c1ccc(-c2ccccc2)[nH]1 (stereo unspecified),,"inconclusive: 22.4 µM [activator, single point]"
CCOC(=O)c1cc(-c2ccncc2)nc2c1c(C)nn2-c1ccccn1,inactive: 0.492%,
Cc1c(N2C(=O)/C(=C/C3CC=CCC3)SC2=S)c(=O)n(-c2ccccc2)n1C (stereo unspecified),,"inconclusive: 31.6 µM [activator, single point]"
COc1ccc(OC)c(CNC(=O)CN2CC(C)Sc3ccccc32)c1 (stereo unspecified),inactive: 5.06%,
C=C(CN(C)C)C(=O)c1ccc(C)cc1C,,"inconclusive: 5.62 µM [activator, single point]"
CCN1CCN(c2sc(S(=O)(=O)CC)nc2S(=O)(=O)c2ccc(Cl)cc2)CC1,,"inconclusive: 11.2 µM [activator, partial curve, poor fit]"
COc1cc(OC)c(C2C=CC(=O)CC2)c(OC)c1 (stereo unspecified),,"inconclusive: 15.8 µM [activator, single point]"
O=c1[nH]c(/C=C/c2ccccc2Cl)c([N+](=O)[O-])c(=O)[nH]1,,"inconclusive: 20 µM [activator, single point]"
CS(=O)(=O)c1nc(-c2ccccc2)cc(C(F)(F)F)n1,,"inconclusive: 5.01 µM [activator, single point]"
CC1CCC(=C(C#N)c2nc(-c3cc4ccccc4oc3=O)cs2)CC1 (stereo unspecified),inactive: 6.82%,
Cc1ccc(/C=N/n2c(-c3ccc(Cl)cc3)n[nH]c2=S)s1,inactive: -0.226%,
O=C(Nc1ccc(NC(=O)c2cccs2)c(Cl)c1)c1ccco1,,"inconclusive: 12.6 µM [activator, partial curve, poor fit]"
Oc1ccc(Nc2nnc(-c3ccc(O)cc3)c3ccccc23)cc1,,"inconclusive: 35.5 µM [activator, single point]"
CN(C)c1ccc(Cc2cc3c(O)ccc(O)c3cc(Cc3ccc(N(C)C)cc3)c2=O)cc1,,"inconclusive: 31.6 µM [activator, single point]"
CCc1ccc(S(=O)(=O)c2c(C(=O)c3ccccc3)cnc3ccc(CC)cc23)cc1,,"inconclusive: 17.8 µM [activator, single point]"
O=C1C=C(N2CCOCC2)c2cccc3cccc1c23,,"inconclusive: 22.4 µM [activator, single point]"
O=C(NCCCc1nc2ccccc2n1Cc1ccc(Cl)cc1Cl)c1ccco1,inactive: 9.18%,
O=C(Nc1cc(Br)ccc1O)c1cnn2c(C(F)F)cc(C3CC3)nc12,,active: 2.51 µM

SMILES,activation,Potency
C=CCNC(=O)/C(C#N)=C/c1ccc(OS(=O)(=O)c2ccc(C)cc2)c(OC)c1,,"inconclusive: 35.5 µM [activator, single point]"
CCOC(=O)c1ccc(NC(=O)CSCc2ccco2)cc1,,"inconclusive: 31.6 µM [activator, single point]"
Cc1cc(C)cc(N2CC(c3nc4ccccc4n3C)CC2=O)c1 (stereo unspecified),inactive: -1.91%,
C=CSc1sc(Cl)c(N2CCOCC2)c1[N+](=O)[O-],,"inconclusive: 22.4 µM [activator, single point]"
CCc1ccccc1NC(=O)c1cc(-c2cccs2)on1,,"inconclusive: 15.8 µM [activator, partial curve, poor fit]"
N/C(=N\OC(=O)c1ccc(F)cc1)c1ccccc1,,"inconclusive: 12.6 µM [activator, partial curve]"
O=C(CN1C(=O)c2cccc3cccc(c23)C1=O)N1CCOCC1,,"inconclusive: 31.6 µM [activator, single point]"
Cc1cc(O)c(NC(=O)c2cc([N+](=O)[O-])ccc2Cl)cc1C,,"inconclusive: 1.78 µM [activator, full curve, poor fit]"
COc1cccc(CNC(=O)CCC2CCCN(C(=O)CCC(F)(F)F)C2)c1 (stereo unspecified),inactive: 0.371%,
COc1cccc(C2=NC(C)(C)NC(c3ccccc3O)C2)c1 (stereo unspecified),,"inconclusive: 15.8 µM [activator, partial curve, poor fit]"
CN(C(=O)COC(=O)/C=C/c1ccccc1[N+](=O)[O-])c1ccccc1,,"inconclusive: 12.6 µM [activator, partial curve, poor fit]"
O=[N+]([O-])c1ccc(/C=[N+](\[O-])[C@@H]2CCCC[C@@H]2/[N+]([O-])=C/c2ccc([N+](=O)[O-])o2)o1,,active: 10 µM
Cc1oc(=O)c(NC(=O)c2ccc(Cl)cc2)cc1C(=O)c1ccccc1,,"inconclusive: 20 µM [activator, single point]"
Cc1cccc2cc3c(nc12)-c1ccccc1C3=O,,"inconclusive: 6.31 µM [activator, full curve]"
CC(/C=N/NC(=O)c1nnn(-c2nonc2N)c1C(C)C)=C\c1ccco1,,"inconclusive: 17.8 µM [activator, single point]"
COc1nc(Nc2cccc(F)c2)nc(OC)n1,,"inconclusive: 11.2 µM [activator, partial curve]"
CCCCc1c(O)nc(SCC(=O)c2ccccc2)[nH]c1=O,,"inconclusive: 31.6 µM [activator, single point]"
CC(=O)Nc1ccc(CNc2ncnc3ccc(-c4c(C)noc4C)cc23)cc1,,"inconclusive: 10 µM [activator, partial curve, poor fit]"
O=C(NNC(=O)c1cccc(C(F)(F)F)c1)c1ccncc1,,"inconclusive: 17.8 µM [activator, single point]"
Oc1ccccc1-n1nc2ccc3nonc3c2n1,,active: 10 µM
Cc1ccc(N2CCN(c3nc4c(S(=O)(=O)c5ccc(C)c(C)c5)nnn4c4ccccc34)CC2)c(C)c1,inactive: -0.101%,
O=C(NC(=S)Nc1ccc(-c2ccccc2)cc1)c1ccccc1,inactive: 9.7%,
Cc1nc(-c2ccc(Cl)cc2)sc1C1(C)CC(c2c(Cl)cccc2Cl)=NO1 (stereo unspecified),inactive: 3.25%,
Cc1ccc2c(c1)/C(=C/c1ccc(F)cc1)C(=O)N2,,"inconclusive: 17.8 µM [activator, single point]"

SMILES,activation,Potency
O=C(Nc1ccccc1)N1CCN(c2ccc(C(F)(F)F)cn2)CC1,inactive: -0.266%,
CC1(O)C(c2ccccc2)=Nc2ccccc21 (stereo unspecified),,"inconclusive: 15.8 µM [activator, partial curve, poor fit]"
COc1ccccc1CNC(=O)Cn1c(=O)ccc2cc(S(=O)(=O)N3CCCC3)ccc21,inactive: -0.0783%,
O=C(/C=C/c1cccc(F)c1)c1ccc(N2CCOCC2)cc1,,"inconclusive: 17.8 µM [activator, single point]"
CC(=O)c1sc(NC(=O)c2cccc(C)c2)nc1C,,"inconclusive: 17.8 µM [activator, single point]"
CSc1nnc(-c2ccccc2)o1,inactive: 0.03%,
CCOc1ccc(C(=O)NCc2ccc3c(c2)CCN3C(=O)c2ccc(C)cc2)cc1OCC,inactive: 4.68%,
O=[N+]([O-])c1cc(S(=O)(=O)N2CCCC2)ccc1N/N=C1/CCCc2ccccc21,inactive: 0.086%,
COc1cc(/C=C/C(=O)NC(=O)c2ccccc2O)ccc1OC(C)=O,,"inconclusive: 22.4 µM [activator, single point]"
Cc1ccc(/C=C2/NC(=O)N(c3ccccc3)C2=O)o1,inactive: 19.5%,
CCn1ncc(Cl)c1C(=O)Nc1cc([N+](=O)[O-])ccc1OC,,"inconclusive: 14.1 µM [activator, partial curve, poor fit]"
O=c1c2ccccc2nc(/C=C/c2cc(Br)ccc2O)n1CCO,,"inconclusive: 17.8 µM [activator, partial curve, poor fit]"
O=C(NCC1CCCO1)NC1(C(F)(F)F)Oc2ccccc2O1 (stereo unspecified),,active: 15.8 µM
CCn1c(COc2cccc(C)c2C)nnc1SCC(=O)N1CCN(c2ccc(OC)cc2)CC1,inactive: -0.441%,
Cc1ccc(C(=O)/C=C/c2ccc(-c3ccccc3[N+](=O)[O-])o2)cc1,,"inconclusive: 2.51 µM [activator, full curve, poor fit]"
CC(C)(C)S(=O)(=O)N1C[C@@H]2CC/C=C\C/C(c3ccccc3)=C\2[C@H]1CCO,inactive: 0.072%,
O=[N+]([O-])c1cc(Cl)cc(/C=N/Nc2nc3ccccc3s2)c1O,,"inconclusive: 5.62 µM [activator, full curve]"
S=c1[nH]nc(-c2ccco2)n1/N=C/c1ccc(Cl)c(Cl)c1,,"inconclusive: 15.8 µM [activator, partial curve, poor fit]"
CCOC(=O)c1[nH]c2ccc(OC)cc2c1NC(=O)c1cccc(OC)c1,inactive: 1.76%,
Cc1nc(S(=O)(=O)N2CCOCC2)c(C#N)c(C)c1Cl,,"inconclusive: 11.2 µM [activator, partial curve, poor fit]"
CN1C(=S)SC2CS(=O)(=O)CC21C (stereo unspecified),inactive: -0.62%,
COc1ccc(-c2nc(S(=O)(=O)c3ccc(Cl)cc3)c(N3CCCCCC3)o2)cc1,inactive: 4.59%,
O=C(Cn1sc2ccccc2c1=O)Nc1ccc(Cl)cc1,,"inconclusive: 25.1 µM [activator, single point]"
